The whole screen tested about 310,000 compounds, of which about 2,200 (0.71%) showed an effect of 50% or more. Effects have a minus sign here. Some of the results follow.

Chain of human ether-à-go-go-related gene (hERG) potassium channel (Q12809 whole entry, looked up): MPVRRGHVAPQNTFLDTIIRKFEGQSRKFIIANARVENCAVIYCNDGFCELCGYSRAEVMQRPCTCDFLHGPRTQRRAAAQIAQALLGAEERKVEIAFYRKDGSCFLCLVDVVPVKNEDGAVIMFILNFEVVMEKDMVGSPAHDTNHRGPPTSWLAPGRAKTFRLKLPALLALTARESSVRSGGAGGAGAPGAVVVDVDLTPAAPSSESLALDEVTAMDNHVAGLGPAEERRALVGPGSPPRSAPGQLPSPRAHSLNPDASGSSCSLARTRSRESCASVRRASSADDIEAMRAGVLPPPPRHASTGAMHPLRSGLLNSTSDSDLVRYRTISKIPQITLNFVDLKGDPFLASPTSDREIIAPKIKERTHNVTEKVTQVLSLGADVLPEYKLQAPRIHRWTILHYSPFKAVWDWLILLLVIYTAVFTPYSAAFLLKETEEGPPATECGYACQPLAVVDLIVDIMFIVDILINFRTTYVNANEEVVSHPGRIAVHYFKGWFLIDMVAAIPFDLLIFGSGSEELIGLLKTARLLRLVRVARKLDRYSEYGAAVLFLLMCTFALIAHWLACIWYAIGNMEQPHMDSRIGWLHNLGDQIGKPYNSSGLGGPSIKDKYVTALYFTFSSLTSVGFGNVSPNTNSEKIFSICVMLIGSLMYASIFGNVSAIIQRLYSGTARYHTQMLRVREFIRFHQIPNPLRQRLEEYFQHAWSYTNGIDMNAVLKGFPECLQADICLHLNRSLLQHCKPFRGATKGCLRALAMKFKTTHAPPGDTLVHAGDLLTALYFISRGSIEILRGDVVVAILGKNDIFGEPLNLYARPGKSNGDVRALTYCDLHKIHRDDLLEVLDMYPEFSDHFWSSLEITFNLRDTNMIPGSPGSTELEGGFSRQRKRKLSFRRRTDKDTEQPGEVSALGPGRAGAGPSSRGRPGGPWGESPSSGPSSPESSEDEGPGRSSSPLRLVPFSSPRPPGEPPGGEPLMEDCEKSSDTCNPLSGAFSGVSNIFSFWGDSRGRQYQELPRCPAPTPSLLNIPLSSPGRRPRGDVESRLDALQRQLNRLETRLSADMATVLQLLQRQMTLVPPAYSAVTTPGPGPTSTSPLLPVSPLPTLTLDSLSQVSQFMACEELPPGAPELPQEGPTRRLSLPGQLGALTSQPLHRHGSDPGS

This test has as its target human ether-à-go-go-related gene (hERG) potassium channel (human, UniProt Q12809). The experiment in a line: primary screen, population patch clamp on CHO cells stably expressing hERG.
Consider `Cc1noc(C)c1Cc1c(Cl)cccc1Cl`, for which the “hERG current change (%, negative = inhibition) at 1uM” value was determined as 14%.
For `COCCOC1CCN(C(=O)c2cc(COc3ccc(-n4cncn4)cc3)on2)CC1`, the “hERG current change (%, negative = inhibition) at 1uM” value is on record as -2.14%.
In the case of `CCC(C)[C@H](NC(=O)NCCCOC(C)C)C(=O)OC` (stereo partly shown) it was 1.14%; in that of `O=C1C=C(c2cccs2)C[C@H](c2ccccc2)[C@H]1n1nnc([N+](=O)[O-])n1`, 4.04%.
In the case of `CC[C@@H](C)[C@H](CNC)NC[C@@H](Cc1cccc2ccccc12)NCCc1cccc(C(F)(F)F)c1`, the “hERG current change (%, negative = inhibition) at 1uM” value came out at 7.77%.
In the case of `Cc1ccccc1N(CC(=O)Nc1ccc(F)cc1)S(C)(=O)=O` it was 10.5%.
In the case of `Cc1ccc(CNC(=O)c2ccc3c(=O)n(CCCN4CCCC4=O)c(=S)[nH]c3c2)cc1` it was 11.9%.
In the case of `CCOC(=O)CSc1nnc(-c2ccc(S(=O)(=O)N3CCC(C)CC3)cc2)o1` it was -2.31%.
`CC(C)=CCCC(C)CN1CCC(n2nccc2NC(=O)C2CCCC2)CC1` (stereo not shown): the “hERG current change (%, negative = inhibition) at 1uM” value is listed as -50.3%.
In the case of `Cc1ccc(N2C(=O)N(CC(=O)N3CCCc4ccccc43)C(=O)C2C)cc1` (stereo not shown) it was 7.42%; in that of `CC(=O)Nc1cc(C)nn1-c1nc(C)cc(C)n1`, 2.16%; in that of `O=S(=O)(NC1CCCCC1)c1ccc(Cl)s1`, -10.7%.
For the compound `Cc1ccc(S(=O)(=O)NC(=O)Nc2cccc(C)n2)cc1`, the “hERG current change (%, negative = inhibition) at 1uM” value came to 19.3%.
With `CCOc1ccc(S(=O)(=O)Nc2cc(OC)ccc2OC)cc1` the figure was 1.2%.
Regarding `CCOc1ccccc1CN1CCNC(=O)C1CC(=O)NCCC1=CCCCC1` (stereo not shown), the “hERG current change (%, negative = inhibition) at 1uM” value was -11.3%.
With `CCC1=C(OC(=O)N(CC)CC)N2C(=O)OC(=NCC(=O)OC)[C@]2(C)[C@H]2C1=CC[C@H]1C(=O)NC(=O)[C@H]12` the figure was 6.15%; with `COc1ccccc1CNC(=O)C1(c2ccc(Cl)cc2)CC1`, 0.547%.
In the case of `Cc1ccc(C(=O)C2CCN(CC(=O)Nc3ccc(N(C)C)cc3)CC2)cc1`, the “hERG current change (%, negative = inhibition) at 1uM” value is listed as -5.85%.
Consider `COc1ccc(-c2c[n+]3c4n2CCCCC4=C(c2ccccc2)C3)cc1.[Br-]`, for which the “hERG current change (%, negative = inhibition) at 1uM” value is reported as -74.7%.
With `CCOC(=O)N1CCN(Cc2nnc(-c3ccccc3C)o2)CC1.Cl`, the “hERG current change (%, negative = inhibition) at 1uM” value is recorded as 12.5%.
With `S=C(c1ccccc1)N1CCSCC1` the figure was 11.9%.
In the case of `C=CCN(C/C(=N\O)c1sc(C(=O)OCC)nc1C)c1cccc(Br)c1` it was 10.4%; in that of `C=CCSC1=NC(N)=C(C#N)C2(CCCCC2)C1C(N)=O` (stereo not shown), 6.67%.
In the case of `Clc1ccc(CSc2cc3c(nn2)-c2ccccc2CC3)cc1Cl` it was 12.4%; in that of `COc1ccc2nc(NC(=O)[C@@H]3CCCN3C(=O)c3cccs3)sc2c1`, -9.23%; in that of `COC(=O)c1cc(=O)n(C2CC2)c(=NC2CC2)s1`, -12.4%.
For `CC1CCCCN1C(=O)C(Cc1ccccc1)N1C(=O)C2CCCCC2C1=O` (stereo not shown), the “hERG current change (%, negative = inhibition) at 1uM” value was 10.7%.
`O=C(Cc1c(F)cccc1Cl)N/N=C/c1cccnc1`: the “hERG current change (%, negative = inhibition) at 1uM” value is listed as 14.6%.
With `COc1ccc([N+](=O)[O-])cc1NC(=O)CCN1CCN(c2ccccc2)CC1` the figure was 3.73%; with `Cc1ccccc1N(C(=O)c1snc(C(N)=O)c1N)C(C(=O)NCC1CCCO1)c1ccc(F)cc1` (stereo not shown), 12.9%; with `Cc1ccc(NC(=O)CCn2nc([N+](=O)[O-])cc2C)nc1`, 8.24%.
Turning to `CCN1CCN(CC(=O)Nc2nc3ccccc3s2)CC1.O=CO`, the “hERG current change (%, negative = inhibition) at 1uM” value amounted to 0.501%.
On to `CCc1noc(C)c1C(=O)NNC(=O)c1ccccc1Cl`, for which the “hERG current change (%, negative = inhibition) at 1uM” value turned out to be 19.4%.
In the case of `CC(=O)N1c2ccc(S(=O)(=O)NCCC(=O)Nc3cccc(Cl)c3)cc2CC1C` (stereo not shown) it was 6.6%; in that of `COCc1nnc(NC(=O)COc2ccc3c(c2)OCO3)s1`, 11.6%; in that of `O=C(c1ccc(CS(=O)c2cccc(Cl)c2)o1)N1CCN(c2ccccn2)CC1` (stereo not shown), -4.54%.
In the case of `CC(=O)Nc1ccc(S(=O)(=O)Nc2ccccc2N2CCOCC2)cc1Cl` it was 6.69%; in that of `CN1CCN(S(=O)(=O)c2ccc(NC(=S)NC(=O)c3ccccc3)cc2)CC1`, 7.58%; in that of `COc1ccc(F)cc1C(=O)C1CCCN(Cc2ccc3c(c2)OCCO3)C1` (stereo not shown), 6.59%.
With `CCOC(=O)c1c(C)n(Cc2ccccc2)c2ccc(OCC(O)CNC(C)(C)C)cc12` (stereo not shown) the figure was -16.4%; with `Cn1c(CNc2ccccn2)c(C#N)c2ccccc21`, 2.32%.
Turning to `CCOc1ccccc1N(C)S(=O)(=O)c1ccc2c(c1)N(C(C)=O)CCO2`, the “hERG current change (%, negative = inhibition) at 1uM” value stood at 13.9%.
In the case of `CO/N=C/c1ccc(N2CCN(C(=O)c3cccc(C(F)(F)F)c3)CC2)c([N+](=O)[O-])c1` it was -2.38%; in that of `O=C(CN1C(=O)/C(=C/c2ccccc2)SC1=S)NC1CCS(=O)(=O)C1` (stereo not shown), 16.6%.
Consider `O=C(N1CCC(O)(c2cccnc2)CC1)C12CC3CC(CC(C3)C1)C2`, for which the “hERG current change (%, negative = inhibition) at 1uM” value amounted to 4.48%.
Regarding `O=C(c1oc(=O)c2ccccc2c1-c1ccccc1)N1CCC(O)CC1`, the “hERG current change (%, negative = inhibition) at 1uM” value is given as 1.07%.
Take `O=C(NCc1ccc(F)cc1)C1CCN(C(=O)Nc2ccc(F)cc2)CC1`: the “hERG current change (%, negative = inhibition) at 1uM” value is listed as -7.77%.
In the case of `COc1ccc(N(CC(=O)Nc2ccc3c(c2)OCO3)S(=O)(=O)c2ccccc2)cc1OC` it was 8.29%.
As to `NC(=O)c1ccc(NC(=O)COc2coc(CN3CCc4ccccc4C3)cc2=O)cc1`, the “hERG current change (%, negative = inhibition) at 1uM” value turned out to be 11%.
In the case of `CCC(C)NC(=O)C1CCCN(C(=O)NC2CCCCC2)C1` (stereo not shown) it was 16.1%.
In the case of `CC(C)Cn1c(=O)c2c(nc3n2CCCN3CCc2ccccc2)n(C)c1=O` it was -15.8%; in that of `CN1CCN(C(=O)C2CCCN(S(=O)(=O)c3ccccc3)C2)CC1` (stereo not shown), 9.99%.
Regarding `Cc1ccc(-n2c(C)cc(C)c(C#N)c2=O)cc1Cl`, the “hERG current change (%, negative = inhibition) at 1uM” value turned out to be 6.89%.
In the case of `Cl.OC(COc1ccc(Cl)c2ccccc12)CN1CCN(c2ccccn2)CC1` (stereo not shown) it was 2.51%.
In the case of `CC(NC(=O)COC(=O)c1cc(=O)[nH]c2ccccc12)c1ccccc1` (stereo not shown) it was 14.9%; in that of `CCCCc1ccc(S(=O)(=O)NC2CCS(=O)(=O)C2)cc1` (stereo not shown), 7%.
In the case of `CCCNC(=O)CS(=O)(=O)Cc1nc(-c2ccccc2C)oc1C`, the “hERG current change (%, negative = inhibition) at 1uM” value amounted to 8.57%.
Regarding `CCC(COC)NC(=O)c1ccc(OC)c(OC2CCN(C(C)=O)CC2)c1` (stereo not shown), the “hERG current change (%, negative = inhibition) at 1uM” value is reported as 12.7%.
With `O=C(NCC1CCN(Cc2ccccc2F)CC1)Nc1cccc(Br)c1`, the “hERG current change (%, negative = inhibition) at 1uM” value was -6.45%.
Consider `COc1cc(C(=O)OCCc2cc3ccccc3c(=O)o2)cc(OC)c1OC`, for which the “hERG current change (%, negative = inhibition) at 1uM” value came to 14.6%.
With `Cc1ccc(N2C(=O)C(F)(F)C2c2ccccc2)cc1` (stereo not shown) the figure was 21.1%.
With `COc1ccccc1-c1noc(-c2cccnc2)n1` the figure was 9.81%.
With `N#Cc1ccccc1NC(=O)C1SC(=Nc2ccccc2)C(C(=O)Nc2ccc(Cl)cc2)=C1N` (stereo not shown) the figure was 6.56%.
As for `CCCCn1c(-c2csc(CCC)c2)n[nH]c1=S`, the “hERG current change (%, negative = inhibition) at 1uM” value is 16.1%.
In the case of `Cc1cc(C(=O)Nc2ccc(S(=O)(=O)N3CCOCC3)cc2)ccc1[N+](=O)[O-]` it was 9.85%; in that of `COc1cc(C)c(CN2CC=C(c3ccc(F)cc3)CC2)cc1C`, 5.21%; in that of `COc1ccc(CN2C(=O)c3ccccc3C2=O)cc1C(=O)O`, 18%.
Turning to `O=c1[nH]c(-c2ccccc2)nc2sc(-c3ccccc3)cc12`, the “hERG current change (%, negative = inhibition) at 1uM” value was 6.98%.
With `Cc1cccc(N2CCN(C(=O)c3cc4c(=O)n(C)c5ccccc5c4n3C)CC2C)c1` (stereo not shown) the figure was 7.27%; with `COc1ccccc1N=Nc1c(O)[nH]c2ccc(Br)cc12`, 10.3%.
In the case of `COC(=O)CNC(=O)Cn1nc(C)c([N+](=O)[O-])c1C` it was 5.4%; in that of `CC(C)Cn1c(N)c(C(=O)COC(=O)C2CC(=O)N(Cc3ccccc3Cl)C2)c(=O)n(C)c1=O` (stereo not shown), -1.64%; in that of `Br.CCCN(CCC)C1CCc2cccc(O)c2C1` (stereo not shown), 13.3%.
In the case of `O=C(CSc1ncn[nH]1)N(C1CCCCC1)C1CCCCC1` it was -18.8%; in that of `COc1cccc(Oc2c(C)oc3c(CN4CCCCC4)c(O)ccc3c2=O)c1`, 8.5%.
Take `CCCOc1ccc(C(=O)CCC(=O)OCC(=O)N(C)c2c(N)n(Cc3ccccc3)c(=O)[nH]c2=O)cc1`: the “hERG current change (%, negative = inhibition) at 1uM” value worked out at 8.97%.
With `O=C(Nc1cc(Cl)ccc1O)C1CCCO1` (stereo not shown) the figure was 3.36%; with `O=C(O)C(c1ccccc1)N1C(=O)/C(=C\c2ccc(O)c(O)c2)SC1=S` (stereo not shown), 14.6%; with `O=C(NCC1CCCO1)c1cccc(S(=O)(=O)N(Cc2ccccc2)c2ccccc2)c1` (stereo not shown), -14.7%.
As to `CCS(=O)(=O)Nc1ccc(C(=O)OC)cc1`, the “hERG current change (%, negative = inhibition) at 1uM” value is 9.25%.
In the case of `Cc1nn(C)c(C)c1CNC(=O)Nc1cccc(Cl)c1` it was 8.61%.
As for `COc1cc(/C=N/n2c(C3CCCCC3)n[nH]c2=S)ccc1O`, the “hERG current change (%, negative = inhibition) at 1uM” value worked out at 10.2%.
Turning to `CNC(=O)Nc1cc(C)nn1C`, the “hERG current change (%, negative = inhibition) at 1uM” value turned out to be 16.1%.
With `CCn1cc(C(=O)O)c(=O)c2cc(F)c(N3CCN(C(=S)NC(=O)c4cc(OC)cc(OC)c4)CC3)cc21`, the “hERG current change (%, negative = inhibition) at 1uM” value is listed as 18.5%.
Take `Cc1ccc(S(=O)(=O)N2CCCC2CNC(=O)C(=O)Nc2ccc(F)cc2)cc1` (stereo not shown): the “hERG current change (%, negative = inhibition) at 1uM” value is -9.62%.
In the case of `Cc1ccc(NC(=O)Nc2cc(-c3ccccc3)nn2C)cc1Cl` it was 10.5%; in that of `COc1ccc(C(=O)CSc2nnc(CNC(=O)c3ccc(OC)c(OC)c3)n2C)cc1`, 3.74%; in that of `c1ccc2c3nnc4n(c-3nc2c1)CCCS4`, 7.79%.

The values above are taken from publication PMC4336329 (PLoS ONE, 2015).
